Results taken from publication PMC6776900, “PPM1G forms a PPP‐type phosphatase holoenzyme with B56δ that maintains adherens junction integrity” (EMBO Reports, 2019).
These are yes or no findings as the source states them, for the method shown. For some of these results: Binding seen in cells or lysates may run through a third protein. Some entries that bind do so weakly or less than the wild type. For some of these results: Sequences can lack the tags named with a protein. One block for each molecule: values may come before it.

Sequences of proteins named here, by UniProt entry; tags and fusion partners are left off. A change or cut given only in a name is not applied to a line headed by its entry.
UniProt P35221: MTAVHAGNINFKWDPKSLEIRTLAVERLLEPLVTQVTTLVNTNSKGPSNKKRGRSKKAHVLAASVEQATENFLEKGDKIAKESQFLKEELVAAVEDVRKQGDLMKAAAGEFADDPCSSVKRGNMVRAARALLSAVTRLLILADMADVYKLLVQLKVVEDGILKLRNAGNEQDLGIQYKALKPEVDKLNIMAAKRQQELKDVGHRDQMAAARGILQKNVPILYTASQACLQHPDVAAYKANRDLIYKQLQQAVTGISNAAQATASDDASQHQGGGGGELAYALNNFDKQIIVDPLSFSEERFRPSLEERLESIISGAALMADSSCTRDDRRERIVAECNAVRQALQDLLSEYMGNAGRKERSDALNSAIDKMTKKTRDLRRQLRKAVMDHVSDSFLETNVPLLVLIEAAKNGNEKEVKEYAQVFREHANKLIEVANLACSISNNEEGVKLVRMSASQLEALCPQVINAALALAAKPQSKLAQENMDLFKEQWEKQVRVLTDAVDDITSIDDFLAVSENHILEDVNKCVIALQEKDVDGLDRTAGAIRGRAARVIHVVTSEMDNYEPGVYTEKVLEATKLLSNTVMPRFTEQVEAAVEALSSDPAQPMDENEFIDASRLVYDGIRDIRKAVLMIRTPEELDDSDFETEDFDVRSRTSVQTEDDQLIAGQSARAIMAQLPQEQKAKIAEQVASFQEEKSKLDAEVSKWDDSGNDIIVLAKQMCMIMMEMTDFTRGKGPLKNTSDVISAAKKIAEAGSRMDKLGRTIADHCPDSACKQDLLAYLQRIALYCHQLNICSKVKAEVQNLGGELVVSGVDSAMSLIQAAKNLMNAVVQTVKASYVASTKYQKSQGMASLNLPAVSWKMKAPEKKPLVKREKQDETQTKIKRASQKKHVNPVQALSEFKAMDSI
UniProt Q14738: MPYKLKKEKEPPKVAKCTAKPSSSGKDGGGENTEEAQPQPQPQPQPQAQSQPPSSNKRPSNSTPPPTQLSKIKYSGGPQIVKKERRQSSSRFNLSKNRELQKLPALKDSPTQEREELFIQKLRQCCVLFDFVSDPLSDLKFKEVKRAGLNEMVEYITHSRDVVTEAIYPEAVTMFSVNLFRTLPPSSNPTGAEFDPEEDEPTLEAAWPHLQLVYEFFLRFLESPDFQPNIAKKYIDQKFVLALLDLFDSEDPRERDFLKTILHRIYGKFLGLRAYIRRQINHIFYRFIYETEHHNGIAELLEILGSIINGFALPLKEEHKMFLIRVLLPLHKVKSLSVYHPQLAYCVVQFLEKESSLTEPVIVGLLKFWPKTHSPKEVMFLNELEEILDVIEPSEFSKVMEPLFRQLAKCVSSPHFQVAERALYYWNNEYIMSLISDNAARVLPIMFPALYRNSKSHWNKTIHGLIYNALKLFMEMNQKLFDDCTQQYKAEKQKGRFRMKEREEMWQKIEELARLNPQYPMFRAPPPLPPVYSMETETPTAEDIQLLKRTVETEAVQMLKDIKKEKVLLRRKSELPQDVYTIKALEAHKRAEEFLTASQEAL
UniProt Q16537: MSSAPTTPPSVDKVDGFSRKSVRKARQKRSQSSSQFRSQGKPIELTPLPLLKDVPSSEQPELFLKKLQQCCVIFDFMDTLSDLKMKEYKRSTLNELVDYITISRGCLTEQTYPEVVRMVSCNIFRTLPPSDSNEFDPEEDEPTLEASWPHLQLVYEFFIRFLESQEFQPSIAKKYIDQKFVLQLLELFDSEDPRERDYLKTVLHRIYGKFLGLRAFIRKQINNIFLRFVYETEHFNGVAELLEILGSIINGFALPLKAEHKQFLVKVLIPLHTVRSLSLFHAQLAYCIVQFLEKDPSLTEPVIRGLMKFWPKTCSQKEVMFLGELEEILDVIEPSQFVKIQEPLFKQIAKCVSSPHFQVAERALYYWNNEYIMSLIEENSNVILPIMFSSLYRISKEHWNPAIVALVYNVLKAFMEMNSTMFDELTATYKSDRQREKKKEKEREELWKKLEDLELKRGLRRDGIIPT
UniProt Q15172: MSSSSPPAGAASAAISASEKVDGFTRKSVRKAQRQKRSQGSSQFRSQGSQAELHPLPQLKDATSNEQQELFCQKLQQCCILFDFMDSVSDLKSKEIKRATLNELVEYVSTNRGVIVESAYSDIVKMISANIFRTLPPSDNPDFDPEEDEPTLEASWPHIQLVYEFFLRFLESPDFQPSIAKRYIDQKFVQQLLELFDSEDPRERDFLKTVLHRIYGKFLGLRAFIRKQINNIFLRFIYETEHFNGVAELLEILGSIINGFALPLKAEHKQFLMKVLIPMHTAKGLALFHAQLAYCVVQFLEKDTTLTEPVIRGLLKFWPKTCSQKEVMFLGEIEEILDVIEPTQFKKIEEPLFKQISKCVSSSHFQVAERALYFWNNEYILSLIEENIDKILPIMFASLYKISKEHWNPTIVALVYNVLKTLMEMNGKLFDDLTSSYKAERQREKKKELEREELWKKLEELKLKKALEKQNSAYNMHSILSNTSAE
UniProt P62714: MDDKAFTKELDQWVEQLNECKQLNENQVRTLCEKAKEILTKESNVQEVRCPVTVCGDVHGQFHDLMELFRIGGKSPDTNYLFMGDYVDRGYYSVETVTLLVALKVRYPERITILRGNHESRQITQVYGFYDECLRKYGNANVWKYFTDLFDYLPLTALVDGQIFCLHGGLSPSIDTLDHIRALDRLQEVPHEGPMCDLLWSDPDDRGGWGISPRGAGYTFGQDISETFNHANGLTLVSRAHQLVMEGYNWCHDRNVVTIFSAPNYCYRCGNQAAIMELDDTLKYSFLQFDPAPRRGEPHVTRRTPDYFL
UniProt P30153: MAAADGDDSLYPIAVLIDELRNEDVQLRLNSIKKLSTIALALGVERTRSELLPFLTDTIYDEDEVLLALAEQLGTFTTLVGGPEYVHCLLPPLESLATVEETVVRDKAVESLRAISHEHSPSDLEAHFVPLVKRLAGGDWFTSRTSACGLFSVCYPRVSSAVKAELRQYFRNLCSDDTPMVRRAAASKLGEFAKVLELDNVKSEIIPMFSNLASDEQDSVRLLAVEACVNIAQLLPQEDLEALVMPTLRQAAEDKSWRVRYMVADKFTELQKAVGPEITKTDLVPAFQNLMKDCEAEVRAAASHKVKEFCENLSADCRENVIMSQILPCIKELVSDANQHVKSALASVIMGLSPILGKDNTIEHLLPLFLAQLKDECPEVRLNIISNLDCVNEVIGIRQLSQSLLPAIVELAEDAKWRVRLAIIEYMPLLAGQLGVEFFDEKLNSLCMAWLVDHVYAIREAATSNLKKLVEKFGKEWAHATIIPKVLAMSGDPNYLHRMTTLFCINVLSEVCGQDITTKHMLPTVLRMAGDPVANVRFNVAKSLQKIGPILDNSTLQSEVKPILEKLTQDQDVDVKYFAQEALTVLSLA
UniProt Q15173: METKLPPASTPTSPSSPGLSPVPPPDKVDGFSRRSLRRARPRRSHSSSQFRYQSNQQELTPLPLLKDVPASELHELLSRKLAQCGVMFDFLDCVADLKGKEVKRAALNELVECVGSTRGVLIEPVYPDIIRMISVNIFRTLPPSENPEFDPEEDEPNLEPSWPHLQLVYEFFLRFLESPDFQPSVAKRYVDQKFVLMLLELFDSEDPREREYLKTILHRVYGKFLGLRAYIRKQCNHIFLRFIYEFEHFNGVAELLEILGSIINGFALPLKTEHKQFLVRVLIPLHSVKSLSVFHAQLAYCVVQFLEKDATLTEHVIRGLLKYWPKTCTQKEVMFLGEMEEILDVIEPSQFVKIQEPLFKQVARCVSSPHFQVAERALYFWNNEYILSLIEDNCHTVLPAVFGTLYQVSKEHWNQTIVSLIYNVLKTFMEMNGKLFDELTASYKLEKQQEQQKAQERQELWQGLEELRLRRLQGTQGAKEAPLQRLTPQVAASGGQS
UniProt P67775: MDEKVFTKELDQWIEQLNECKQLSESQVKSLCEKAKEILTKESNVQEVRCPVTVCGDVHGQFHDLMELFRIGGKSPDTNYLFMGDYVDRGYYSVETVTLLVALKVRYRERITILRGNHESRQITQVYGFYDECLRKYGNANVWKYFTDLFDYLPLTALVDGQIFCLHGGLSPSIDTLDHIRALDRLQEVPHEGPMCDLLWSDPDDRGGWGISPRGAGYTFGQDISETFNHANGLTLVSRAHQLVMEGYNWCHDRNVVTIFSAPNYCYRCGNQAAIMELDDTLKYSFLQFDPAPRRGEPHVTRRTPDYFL
UniProt P30154: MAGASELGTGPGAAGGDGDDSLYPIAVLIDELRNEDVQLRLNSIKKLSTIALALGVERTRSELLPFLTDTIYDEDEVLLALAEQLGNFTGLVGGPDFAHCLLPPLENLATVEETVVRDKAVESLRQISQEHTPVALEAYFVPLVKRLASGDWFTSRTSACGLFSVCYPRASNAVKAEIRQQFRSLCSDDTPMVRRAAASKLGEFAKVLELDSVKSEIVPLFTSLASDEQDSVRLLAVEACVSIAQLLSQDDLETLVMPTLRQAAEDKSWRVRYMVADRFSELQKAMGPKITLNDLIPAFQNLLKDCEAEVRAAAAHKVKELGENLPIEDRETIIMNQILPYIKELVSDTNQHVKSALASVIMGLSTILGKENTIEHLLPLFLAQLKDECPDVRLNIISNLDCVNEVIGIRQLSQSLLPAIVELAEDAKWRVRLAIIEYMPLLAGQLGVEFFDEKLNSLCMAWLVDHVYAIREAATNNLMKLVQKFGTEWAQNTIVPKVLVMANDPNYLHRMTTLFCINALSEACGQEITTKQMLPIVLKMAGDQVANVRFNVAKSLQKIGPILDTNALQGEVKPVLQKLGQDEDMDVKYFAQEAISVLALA
UniProt P35222: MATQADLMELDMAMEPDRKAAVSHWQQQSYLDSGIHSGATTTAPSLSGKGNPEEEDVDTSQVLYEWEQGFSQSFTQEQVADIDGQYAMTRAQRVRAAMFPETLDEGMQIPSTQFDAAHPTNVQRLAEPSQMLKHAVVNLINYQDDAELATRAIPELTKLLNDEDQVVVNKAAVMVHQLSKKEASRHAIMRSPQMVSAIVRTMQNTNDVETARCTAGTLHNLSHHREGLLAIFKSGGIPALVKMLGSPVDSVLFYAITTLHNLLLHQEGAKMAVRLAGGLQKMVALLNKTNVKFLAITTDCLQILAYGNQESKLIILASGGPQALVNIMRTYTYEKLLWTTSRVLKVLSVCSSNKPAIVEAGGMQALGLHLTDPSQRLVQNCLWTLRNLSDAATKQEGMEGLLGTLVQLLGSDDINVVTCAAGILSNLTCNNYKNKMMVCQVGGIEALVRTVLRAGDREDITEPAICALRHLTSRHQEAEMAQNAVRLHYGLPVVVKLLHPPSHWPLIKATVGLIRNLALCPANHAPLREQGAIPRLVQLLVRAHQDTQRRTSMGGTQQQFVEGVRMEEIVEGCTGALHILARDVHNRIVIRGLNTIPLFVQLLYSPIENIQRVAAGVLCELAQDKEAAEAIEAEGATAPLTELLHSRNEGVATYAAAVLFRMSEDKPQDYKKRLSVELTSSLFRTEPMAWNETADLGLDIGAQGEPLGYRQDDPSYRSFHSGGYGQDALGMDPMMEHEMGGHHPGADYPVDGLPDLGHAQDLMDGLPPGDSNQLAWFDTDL

Legend:
SFB-α-catenin [1] = target: SFB-α-catenin (UniProt P35221); assay: co-IP; nuclear fraction of cells expressing SFB-α-catenin; immunoprecipitation with Flag, blots with PPM1G and β-catenin antibodies
SFB-α-catenin [2] = target: SFB-α-catenin (UniProt P35221); assay: co-IP; cytoplasmic fraction of cells expressing SFB-α-catenin; immunoprecipitation with Flag, blots with PPM1G and β-catenin antibodies
SFB-α-catenin [3] = target: SFB-α-catenin (UniProt P35221); assay: pull-down; SFB-tagged bait expressed in cells (HEK293T/293T where named), lysate in NETN buffer, streptavidin Sepharose beads 1 h at 4°C, endogenous prey detected by Western blot; Fig 3B/3L control shRNA cells; Fig 4C control, PPM1G and B56δ shRNA cells
[4] = target: T1, SFB-PPM1G full length (FL) (human) (UniProt O15355); assay: pull-down; SFB-tagged bait and Myc-tagged prey co-transfected in cells, lysate pulled down with streptavidin beads, immunoblot with Myc antibody
T1 sequence: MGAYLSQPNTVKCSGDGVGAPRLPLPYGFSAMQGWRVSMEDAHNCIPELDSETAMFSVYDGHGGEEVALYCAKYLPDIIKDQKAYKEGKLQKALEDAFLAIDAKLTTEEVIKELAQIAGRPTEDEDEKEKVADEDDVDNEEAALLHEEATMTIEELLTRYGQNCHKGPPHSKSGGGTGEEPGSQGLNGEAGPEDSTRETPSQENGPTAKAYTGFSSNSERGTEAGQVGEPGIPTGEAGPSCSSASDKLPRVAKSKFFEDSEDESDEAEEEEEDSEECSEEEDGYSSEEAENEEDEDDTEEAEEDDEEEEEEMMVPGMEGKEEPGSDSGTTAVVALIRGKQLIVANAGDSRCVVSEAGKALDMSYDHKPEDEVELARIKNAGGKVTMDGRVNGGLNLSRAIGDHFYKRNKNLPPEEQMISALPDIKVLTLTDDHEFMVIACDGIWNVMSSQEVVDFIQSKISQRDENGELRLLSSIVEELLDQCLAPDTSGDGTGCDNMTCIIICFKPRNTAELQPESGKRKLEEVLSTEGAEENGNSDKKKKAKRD

[5] = target: endogenous α-catenin (human (endogenous in HEK293T)) (UniProt P35221); assay: co-IP; endogenous proteins; immunoprecipitation with IgG or α-catenin antibody, immunoblot with PPM1G antibody
SFB-B56δ H282A (human) = SFB-B56δ H282A (human) (UniProt Q14738); assay: pull-down; SFB-tagged bait expressed in cells (HEK293T/293T where named), lysate in NETN buffer, streptavidin Sepharose beads 1 h at 4°C, endogenous prey detected by Western blot; Fig 3B/3L control shRNA cells; Fig 4C control, PPM1G and B56δ shRNA cells
SFB-B56ε (human) = SFB-B56ε (human) (UniProt Q16537); assay: as above
SFB-B56α (human) = SFB-B56α (human) (UniProt Q15172); assay: as above
[6] = target: SFB-B56δ full length (FL) (human) (UniProt Q14738); assay: as above
SFB-PPP2CB = SFB-PPP2CB (UniProt P62714); assay: as above
SFB-B56δ L183A (human) = SFB-B56δ L183A (human) (UniProt Q14738); assay: as above
SFB-PPP2R1A = SFB-PPP2R1A (UniProt P30153); assay: as above
SFB-B56β (human) = SFB-B56β (human) (UniProt Q15173); assay: as above
SFB-PPP2CA = SFB-PPP2CA (UniProt P67775); assay: as above
SFB-PPP2R1B = SFB-PPP2R1B (UniProt P30154); assay: as above
SFB-α-catenin [7] = target: SFB-α-catenin (UniProt P35221); assay: co-IP; SFB-α-catenin and Myc-PPM1G expressed in 293T cells; immunoprecipitation with IgG or Flag antibody, blot with Myc antibody
GST-PPP2R1A = GST-PPP2R1A (UniProt P30153); assay: pull-down; GST-tagged bait on glutathione Sepharose beads incubated with MBP-tagged prey for 1 h at 4°C, detection with MBP antibody; both purified

- binding [4]: binds
Molecule: Myc-tagged α-catenin (from UniProt P35221 1-906)

- binding (SFB-α-catenin [7]): binds
B2: Myc-PPM1G (enzyme, UniProt O15355 1-546)
chain: T1 sequence

Continued, molecule first:

Molecule: endogenous β-catenin (from UniProt P35222 1-781)
- binding (SFB-α-catenin [1]): binds
- binding (SFB-α-catenin [2]): binds
- binding (SFB-α-catenin [3]): binds

B1: endogenous PPM1G (enzyme, UniProt O15355 1-546)
chain: T1 sequence
- binding [5]: binds
- binding (SFB-B56δ H282A (human)): binds
- binding (SFB-B56ε (human)): no binding
- binding (SFB-B56α (human)): no binding
- binding [6]: binds
- binding (SFB-PPP2CB): no binding
- binding (SFB-B56δ L183A (human)): binds
- binding (SFB-PPP2R1A): no binding
- binding (SFB-B56β (human)): no binding
- binding (SFB-PPP2CA): no binding
- binding (SFB-PPP2R1B): no binding
- binding (SFB-α-catenin [1]): no binding (condition: nuclear fraction)
- binding (SFB-α-catenin [2]): binds

B3: MBP-PPM1G (enzyme, UniProt O15355 1-546)
chain: T1 sequence
- binding (GST-PPP2R1A): no binding
